# Data taken from PubChem BioAssay AID1347417 (National Center for Advancing Translational Sciences (NCATS), 2020).
# Screen size: about 120,000 compounds; about 5,300 (4.4%) were called active. This list was built around the results that the source calls inconclusive (neither active nor inactive); the mix of calls is not that of the screen. Calls come from the whole dose curve; as a rule, active = well fitted inhibition curve with a large enough effect; inconclusive = small, poorly fitted or top-dose-only effect; inactive = no such curve, though single readings can be large or run the other way. Potencies of inconclusive entries are doubtful fits and often do not repeat.
# Assay: qHTS Primary assay for Inhibitors of Plasmodium falciparum Dd2 growth in vitro; note: nearly all actives have a fitted effect of over 65% in size
# Conditions: P. falciparum Dd2 growth, SYBR Green, 72 h; series mostly up to 28.9 µM
# Procedure, shortened: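 Infected erythrocytes (Dd2, 0.3% parasitemia, 2.5% hematocrit final) are added to compound in RPMI-1640/Albumax II medium, grown 72 h at 37C in low oxygen, then lysed with saponin/Triton-X containing SYBR Green and read by fluorescence.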
# Potency is the fitted concentration of half-maximal effect; tags give direction and shape of the fitted curve.
row,Compound,Potency
1,O=C(NC1CCCCC1)[C@@H]1C[C@@H](O)CN1C1CCN(C(=O)C2CCC2)CC1,"inconclusive: 10 µM [inhibitor, single point]"
2,COc1ccc2sc(N(Cc3cccnc3)C(=O)c3ccco3)nc2c1,"inconclusive: 17.8 µM [inhibitor, single point]"
3,O=C([C@@H]1C[C@H](F)CN1C(=O)Nc1ccc(F)cc1)N1CCOCC1,inactive
4,CCOC(=O)c1ccc(N2C(=O)c3[nH]nc(-c4ccc(OC)cc4)c3C2c2ccc(C)cc2)cc1 (stereo unspecified),active: 8.91 µM
5,CCOc1ccc(N2CC(c3nc4ccccc4n3CCC3CCCCC3)CC2=O)cc1 (stereo unspecified),active: 11.2 µM
6,COc1cc2c(cc1OCC1CC1)NC(=O)C21CCN(C(=O)c2cccnc2)CC1,"inconclusive: 0.891 µM [inhibitor, full curve]"
7,COc1ccccc1-c1[nH]nc2ncc(-c3ccnc(C)c3)nc12,"inconclusive: 4.47 µM [inhibitor, single point]"
8,COCC(=O)NC1CCC12CCN(Cc1ccc(C)c(C)c1)CC2 (stereo unspecified),inactive
9,COc1ccc(N2CCN(C(CNS(=O)(=O)c3c(C)cc(C)cc3C)c3ccco3)CC2)cc1 (stereo unspecified),"inconclusive: 17.8 µM [inhibitor, single point]"
10,Cc1ccn2c(Nc3ccc4c(c3)OCO4)c(-c3ccco3)nc2c1,"inconclusive: 11.2 µM [inhibitor, single point]"
11,N#Cc1c(C(F)(F)F)cc(-c2cccs2)nc1SCC(=O)Nc1ccc(Cl)cc1,"inconclusive: 10 µM [inhibitor, single point]"
12,Cc1ccc(C(=O)N2CCCC2c2nncn2Cc2ccncc2)c(=O)[nH]1 (stereo unspecified),inactive
13,Cc1noc(C)c1-c1cc2cc(CN(C)C)oc2c(Nc2cccnc2)n1,"inconclusive: 2 µM [inhibitor, full curve]"
14,CCc1ccc(CN2C[C@@H]3C(=O)N(CCN4CCc5ccccc5C4)C(=O)[C@@H]3C2)cc1,"inconclusive: 10 µM [inhibitor, single point]"
15,NC(=O)N1CCCC(C(=O)NCCS(=O)(=O)c2ccc(F)cc2)C1 (stereo unspecified),inactive
16,COc1cc(Nc2ncnc3onc(-c4ccc(Cl)cc4)c23)cc(OC)c1,"inconclusive: 17.8 µM [inhibitor, single point]"
17,CCCCc1cn(C[C@H]2C[C@@H]3CCN2C[C@@H]3C(=O)NC2CCCCC2)nn1,"inconclusive: 14.1 µM [inhibitor, single point]"
18,Cc1ccc(-n2c(=O)c3c(C)c(C)sc3n(CC(=O)c3ccc(Cl)cc3)c2=O)cc1C,"inconclusive: 17.8 µM [inhibitor, single point]"
19,CCn1cc(C(=O)NCCc2ccc(OC)c(OC)c2)c(=O)c2cc(S(=O)(=O)N3CCc4ccccc4C3)ccc21,"inconclusive: 20 µM [inhibitor, single point]"
20,Cc1nn(-c2ccccc2)c(C)c1CN1CCC2(CC1)Cc1ccccc1CNC2=O,"inconclusive: 10 µM [inhibitor, single point]"
21,COc1ccc2[nH]c3c(c2c1)CCNC31CCN(Cc2ccc(F)c(F)c2)CC1,"inconclusive: 3.98 µM [inhibitor, single point]"
22,COc1ccc(-c2nc(CN3CCC(C(=O)NCCN(CC(C)C)CC(C)C)CC3)c(C)o2)cc1OC,"inconclusive: 0.794 µM [inhibitor, partial curve, poor fit]"

row,Compound,Potency
1,CCC1c2nccn2CCCN1C(=O)COc1ccc(Cl)cc1C (stereo unspecified),"inconclusive: 17.8 µM [inhibitor, single point]"
2,COCC(=O)N[C@@H]1CN(Cc2cccc(C#N)c2)CC[C@@H]1c1n[nH]c(C)n1,inactive
3,Cc1cn2nc(C(=O)N3CCN(c4cccc(Cl)c4)CC3)cc2c(N2CCCC2)n1,"inconclusive: 7.94 µM [inhibitor, partial curve, poor fit]"
4,CCS(=O)(=O)c1ncc(Cl)c(C(=O)N(Cc2ccccc2)Cc2ccco2)n1,inactive
5,CCc1ccc(C(=O)NC2CCN(c3ccccc3)C2=O)cc1 (stereo unspecified),"inconclusive: 7.94 µM [inhibitor, single point]"
6,COc1ccc(C)cc1NC(=O)N1CCC(Oc2ncccc2C(=O)N2CCOCC2)C1 (stereo unspecified),inactive
7,CCN1c2cc(C(=O)NCc3nc4ccccc4n3C)ccc2C(=O)N2CCCCCC21 (stereo unspecified),"inconclusive: 7.94 µM [inhibitor, partial curve, poor fit]"
8,Cc1ccc(C)c(CN2C(=O)c3ccccc3Sc3ccc(C(=O)NC4CCCC4)cc32)c1,"inconclusive: 10 µM [inhibitor, single point]"
9,COc1ccc(NC(=O)c2c(C)oc3ccc(O)c(CN4CCCC(C)C4)c23)cc1Cl (stereo unspecified),active: 0.398 µM
10,COCCCNC(=O)N1CCCN(S(C)(=O)=O)C(c2ccccc2)CC(=O)NCC1 (stereo unspecified),inactive
11,Cc1ncsc1C1N(C2CCN(C(=O)COc3ccccc3)CC2)C(=O)C12CCCC2 (stereo unspecified),"inconclusive: 11.2 µM [inhibitor, single point]"
12,CCc1ccc(NC(=O)c2cnn(-c3c(C)cccc3C)c2C2CCNCC2)cc1,"inconclusive: 11.2 µM [inhibitor, partial curve, poor fit]"
13,CCn1nccc1C(=O)N1CCC(Cc2noc(C3CCOCC3)n2)C1 (stereo unspecified),inactive
14,COc1ccc(Cl)cc1-c1ccc2c(c1)C(=O)N1CCN(C(=O)CC(C)(C)C)C[C@@H]1C(=O)N2,inactive
15,COc1cccc(C(=O)N2CCCN(c3cc(-c4ccc(C)c(C)c4)[nH]n3)CC2)c1OC,inactive
16,Cc1ccc(S(=O)(=O)c2cn(C)c3cc(N4CCCC4)c(F)cc3c2=O)c(C)c1,active: 10 µM
17,COc1ccc(CN2C(=O)[C@@H]3C[C@@H](CN3Cc3ccccc3C)Oc3ccccc32)cc1,"inconclusive: 12.6 µM [inhibitor, partial curve, poor fit]"
18,CCc1ccc(NC(=O)Cn2c(=O)n(Cc3ccccc3)c(=O)c3oc4ccccc4c32)cc1,"inconclusive: 12.6 µM [inhibitor, single point]"
19,CCC[C@@H]1CN(Cc2cc(OC)c(SC)cc2OC)C[C@H]1NC(C)=O,"inconclusive: 15.8 µM [inhibitor, partial curve, poor fit]"
20,Cc1ncc(CO)c2c1Oc1nc(-c3ccccc3F)nc(SCC(=O)N3CCCCC3)c1C2,inactive
21,Cc1ccc(N2CC(c3noc(-c4cc(F)cc(F)c4)n3)CC2=O)cc1 (stereo unspecified),inactive
22,CN1CCC(N2CC[C@@H]3[C@H]2C(=O)NC[C@H](CCC(=O)N2CCOCC2)N3C)CC1,inactive

row,Compound,Potency
1,COCCn1ncc(N2CCCC(CC(=O)NC3CCCCC3)C2)cc1=O (stereo unspecified),inactive
2,COc1ccc(-c2[nH]c(-c3ccc(F)cc3)nc2SCC(=O)Nc2ccc(OC)c(OC)c2)cc1,"inconclusive: 11.2 µM [inhibitor, single point]"
3,COCCCNC(=O)CN1CC2CC(C1)[C@H]1CCCC(=O)N1C2 (stereo partly specified),inactive
4,COCCNC(=O)CCCN1C(=O)COc2ccc(C(=O)COc3ccccc3OC)cc21,"inconclusive: 0.355 µM [inhibitor, partial curve, poor fit]"
5,O=C(c1ccc2c(c1)OCO2)N1CC(c2noc(C3CCCN3CC3CC3)n2)C1 (stereo unspecified),active: 5.01 µM
6,COCc1nncn1C1CCN(C(=O)C2(c3ccccc3)CC2)CC1,inactive
7,CCn1cc(S(=O)(=O)NCCc2ncc(C)n2C2CC2)cn1,"inconclusive: 3.16 µM [inhibitor, single point]"
8,CCn1cc2nc(SCc3cccc(C(F)(F)F)c3)n(CCc3ccccc3)c(=O)c2n1,"inconclusive: 10 µM [inhibitor, single point]"
9,CCc1ccc(NC(=O)CCS(=O)(=O)c2ccc3c(c2)oc(=O)n3C)cc1,"inconclusive: 3.55 µM [inhibitor, full curve, poor fit]"
10,COc1ccccc1C(=O)N1CC(N(C)c2ccccc2C)C1,inactive
11,Cc1ccc(-n2c(SCc3nc(-c4ccccc4C)no3)nnc2-c2ccncc2)cc1C,"inconclusive: 12.6 µM [inhibitor, partial curve, poor fit]"
12,COC(=O)c1c(NC(=O)c2ccc(S(=O)(=O)N3CCCCC3)cc2)sc2c1CCN(C)C2,active: 10 µM
13,Cc1cccc(-c2noc([C@@H]3Cc4nc[nH]c4CN3)n2)c1,inactive
14,CCC(=O)N1CCC(CC)(N2CCN(S(=O)(=O)c3cc(Cl)ccc3OC)CC2)C1 (stereo unspecified),"inconclusive: 14.1 µM [inhibitor, single point]"
15,C#CCNC(=O)[C@@H]1Cc2cn(CC#CC)c3cccc(c23)[C@H](CC(C)C)N1,"inconclusive: 5.62 µM [inhibitor, single point]"
16,Cn1ccc(NC(=O)c2cnc3c(c2)N([S+](=O)([O-])c2cccnc2)CCC3)n1,inactive
17,CC(=O)NC[C@@H]1C=C(C)[C@H](Cc2nnc(-c3cncn3C)o2)C[C@H]1C(C)C,inactive
18,COc1ccc2c(c1)c(N1CCCC1=O)c(C(=O)Nc1ccc(Cl)cc1C)n2C,"inconclusive: 20 µM [inhibitor, partial curve, poor fit]"
19,CCOC(=O)c1ccc(OCC2c3cc(OC)c(OC)cc3CCN2C(=O)Cc2ccc(OC)c(OC)c2)cc1 (stereo unspecified),active: 8.91 µM
20,COCCOC1CN(C2CCN(C(=O)c3nn(C)c4ccccc34)CC2)C12CCCCC2 (stereo unspecified),"inconclusive: 15.8 µM [inhibitor, partial curve, poor fit]"
21,CCC(CC)C(=O)Nc1ccc([C@@H](O)[C@H]2COCC(=O)N2CC)cc1,"inconclusive: 25.1 µM [inhibitor, single point]"
22,COC(=O)CNC(c1ccccc1)c1cc(Br)ccc1NC(=O)c1cc(OC)c(OC)c(OC)c1 (stereo unspecified),"inconclusive: 17.8 µM [inhibitor, single point]"
